Experimental data from the supplement of paper PMC11417369.
The other results are listed elsewhere or left out.

The sequences below were run on PfAP2-HC AP2 domain (GST-tagged) (assay: gcPBM binding intensity (ln(normalized median fluorescence intensity)); higher = stronger DNA binding).
Summary of the method: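 An Agilent 4 × 180k array carrying primer-extended double-stranded 36-bp intergenic genomic probes and negative controls received GST-tagged P. falciparum DNA-binding domains expressed in E. coli, about 25 μg on average, for 1 h. The binding buffer contained 1× PBS, 1% milk, 0.2 mg/ml BSA, 0.5% salmon testes DNA and 0.03% Triton X-100. Binding intensity is the top Masliner-normalised natural-log median intensity across replicate spots of either probe orientation, read after Alexa488 anti-GST antibody staining and a 488 nm scan.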
“AATAGTAATTTGAATACACACAATAATATATTTATA [CACACA_site7055]” was tested, and the “gcPBM binding intensity (ln)” value was 9.74.
“TAACACCAAACTAAATGTACACACATACATAAATAT [XGTACX_site2201]” was tested, and the “gcPBM binding intensity (ln)” value was 10.
With “TCTTATATGATATTTATTTATTTATTTATTTATTCA [GTGCAC_negctrl_site686]” the “gcPBM binding intensity (ln)” value was 9.64.
“GGAATAGTAATATATACACACAAATACATATATATA [CACACA_site67]” was tested, and the “gcPBM binding intensity (ln)” value was 9.98.
In the case of “TTTATTTTTTAATGATGTACTATTTATCCAGAAAAG [XGTACX_site7750]”, the “gcPBM binding intensity (ln)” value is reported as 9.28.
With “AAATTAAATGTAAGCACACATAAATTATACTCATAT [CACACA_site5782]” the “gcPBM binding intensity (ln)” value was 9.83.
In the case of “ACTTATACAAAATGTGCATGTTATATTTACAATAAT [TGCATGCA_site108]”, the “gcPBM binding intensity (ln)” value is reported as 9.67.
“ATAAGCTCATGCAGGTGTACACAAAAAGAAAAAAAA [XGTACX_site2433]” was tested, and the “gcPBM binding intensity (ln)” value was 9.79.
“ATAATGAAAAGGAACATACACACCCCATATAAATAT [CACACA_site3442]” was tested, and the “gcPBM binding intensity (ln)” value was 10.3.
In the case of “AAAATATATATTAACACACACACAAAAAAAAAAAAA [CACACA_site1325]”, the “gcPBM binding intensity (ln)” value is reported as 11.2.
“GAAAATTATATGTGTTGTACACTTGCAACAACTATT [XGTACX_site3637]” was tested, and the “gcPBM binding intensity (ln)” value was 9.76.
For “TTTTATAATGTTGTAGTGCAAAATACGTATATTTAT [GTGCAC_site9826]”, the “gcPBM binding intensity (ln)” value was 9.63.
With “AATAAATATATGTACACACACAAATATATACATATC [CACACA_site1903]” the “gcPBM binding intensity (ln)” value was 10.2.
For “AATATATGGTTTCATTATATTAAATTCAATTTAATG [CACACA_negctrl_site675]”, the “gcPBM binding intensity (ln)” value was 9.42.
With “GGTGGCTAAATTACAACACACGACGGAATATTATAT [CACACA_site4114]” the “gcPBM binding intensity (ln)” value was 9.77.
For “ACCGTGGGAAGACACACACACACACCCACATATATA [CACACA_site333]”, the “gcPBM binding intensity (ln)” value was 11.
“AGTATATAATAATTTACACACAAAAAAATATCAGGA [CACACA_site3517]” was tested, and the “gcPBM binding intensity (ln)” value was 10.
For “TGATTTATCTATATTTTATAAGTTATTTATTTTTTT [CACACA_negctrl_site1603]”, the “gcPBM binding intensity (ln)” value was 9.51.
In the case of “TTTTATTCATTGAGCACACAAAATAAATTATCAAAA [CACACA_site3279]”, the “gcPBM binding intensity (ln)” value is reported as 9.44.
With “ATATAAATATTTATTAGTACACATTAGTGTAGTTTT [XGTACX_site4493]” the “gcPBM binding intensity (ln)” value was 9.58.
For “CTATATTATTTTTCTTGTACGTAGGAAATATAGCTA [XGTACX_site6176]”, the “gcPBM binding intensity (ln)” value was 9.35.
“TCTTGAAAAAGAATCAATCGGTCGACAAAAAAAAAA [CACACA_negctrl_site1099]” was tested, and the “gcPBM binding intensity (ln)” value was 9.82.
In the case of “ATATTCTTGTTTAATACACACTGTAGTATTATAGAT [CACACA_site6341]”, the “gcPBM binding intensity (ln)” value is reported as 9.78.
“TTTTTTAATATTTATTAATTAAACTTTGTTTTTGTT [XGTACX_negctrl_site454]” was tested, and the “gcPBM binding intensity (ln)” value was 9.64.
For “AAAAAACACTTAAGGTGTACCTTTTAATATAAGTAT [XGTACX_site2397]”, the “gcPBM binding intensity (ln)” value was 9.72.
“GACAAATAATAAAAGGTGCATTATACTTAACAAAAA [GTGCAC_site9624]” was tested, and the “gcPBM binding intensity (ln)” value was 9.67.
“AAAATGAACAAACACACACACATATATATATATATA [CACACA_site2403]” was tested, and the “gcPBM binding intensity (ln)” value was 11.2.
“AAAAATGTATGTATGGTGCAGTATTCATATCATTTT [GTGCAC_site9458]” was tested, and the “gcPBM binding intensity (ln)” value was 9.73.
“TTATTGTGTAAGATGATTTTCTTCGTCACTTTGAAA [CACACA_negctrl_site1814]” was tested, and the “gcPBM binding intensity (ln)” value was 9.37.
In the case of “TGTGTATATAAATAATGTACATATATATTTTTTTAT [XGTACX_site7341]”, the “gcPBM binding intensity (ln)” value is reported as 9.64.
For “GTAAAAAAAAAAAAAAGTACATTATACATATATTTA [XGTACX_site5447]”, the “gcPBM binding intensity (ln)” value was 9.52.
With “AACCATAACTCATATGCACACATAAATATTACATAT [CACACA_site9273]” the “gcPBM binding intensity (ln)” value was 10.2.
“TGGAGGATAGTTCACAGTACCCAGTAACTCTACGGA [XGTACX_site4930]” was tested, and the “gcPBM binding intensity (ln)” value was 9.43.
“AAAGTATAAATAAATACACACATATATATATATATA [CACACA_site2892]” was tested, and the “gcPBM binding intensity (ln)” value was 9.84.
For “TACATTCGGAGTAAAAAAAAATTTATACAATTACTT [XGTACX_negctrl_site29]”, the “gcPBM binding intensity (ln)” value was 9.44.
For “TATATATTATATATATGTACATAATTCCATGTTTAG [XGTACX_site3943]”, the “gcPBM binding intensity (ln)” value was 9.6.
For “AACTCTTAAAAATAAACATGCAAATATTTACCTTCT [TGCATGCA_site986]”, the “gcPBM binding intensity (ln)” value was 9.57.
With “CTTGAAAGATTTTATTGTACTCATAAGATACATTTC [XGTACX_site3178]” the “gcPBM binding intensity (ln)” value was 9.35.
With “TCATACAATATTAAATGTACATATATATATATATAT [XGTACX_site8828]” the “gcPBM binding intensity (ln)” value was 9.67.
With “ATATTAAAGCCTTTTTGTACATATAAATAAACATAG [XGTACX_site4667]” the “gcPBM binding intensity (ln)” value was 9.55.
“TTGAAAATAATATGAAGTACATTATTTTTTTTTAAT [XGTACX_site4499]” was tested, and the “gcPBM binding intensity (ln)” value was 9.43.
In the case of “AAAAATATTTAAAATACACACATATATATAATATAT [CACACA_site2006]”, the “gcPBM binding intensity (ln)” value is reported as 9.9.
In the case of “AAAACTTTCCATGTTTGTACATAAAATATAATAATT [XGTACX_site2716]”, the “gcPBM binding intensity (ln)” value is reported as 9.61.
“TTTTTTTTCTTTTTTTTTTTTTCAAAAGCTTATAAT [CACACA_negctrl_site1526]” was tested, and the “gcPBM binding intensity (ln)” value was 9.32.
“TGTATAATCATATATACACACACATATATATATATA [CACACA_site8674]” was tested, and the “gcPBM binding intensity (ln)” value was 10.1.
“TTATATAAAAAAAAATGTACATATAATTGGTAAATT [XGTACX_site5180]” was tested, and the “gcPBM binding intensity (ln)” value was 9.66.
With “GTGTATTTGGTGCGCACACACATGCAAAAAGAAATA [CACACA_site4768]” the “gcPBM binding intensity (ln)” value was 10.1.
“CACAAAAATGTAATCACACATATATATATATATATA [CACACA_site5818]” was tested, and the “gcPBM binding intensity (ln)” value was 9.52.
For “AAAAAATGAAAATATTCCAAAATAGAGGGAAATGTA [GTGCAC_negctrl_site572]”, the “gcPBM binding intensity (ln)” value was 9.69.
With “TATGTGATAACACGCACACAAATGTATTTAATTTAT [CACACA_site5435]” the “gcPBM binding intensity (ln)” value was 9.87.
With “ATTCTAATAATATATACACACACATATATATTTATA [CACACA_site8629]” the “gcPBM binding intensity (ln)” value was 9.99.
For “TTATATTTATATATTTGTACGTATGTATATAATTCA [XGTACX_site2993]”, the “gcPBM binding intensity (ln)” value was 9.55.
With “CTTTTTTAAAATATTTAACACACAATTTTAATGCAT [CACACA_site9303]” the “gcPBM binding intensity (ln)” value was 9.66.
With “AAAATTAGGAGACATGCATGTAACGATAAATATAAC [TGCATGCA_site148]” the “gcPBM binding intensity (ln)” value was 10.3.
In the case of “TAATTTTTATTCAAGAGTACACAAAAGATAACTAAA [XGTACX_site4060]”, the “gcPBM binding intensity (ln)” value is reported as 9.16.
With “TAAAAAAAATCATTCACACATATATGAAAAAAAAAA [CACACA_site5546]” the “gcPBM binding intensity (ln)” value was 9.64.
